# Experimental data taken from PubChem BioAssay AID504832 (National Center for Advancing Translational Sciences (NCATS), 2011).
# Where “and” joins values, the source holds several entries; their conditions need not be identical. Identical values can stand only once. About 18,000 (5.8%) of roughly 310,000 compounds were called active. Inconclusive means that the source gave no clear call. Such entries were picked first, then a sample of the others. Calls follow the shape of the dose curve; as a rule, active = well fitted inhibition curve with a large enough effect; inconclusive = small, poorly fitted or top-dose-only effect, or another doubt; inactive = no such curve, though single readings can be large or run the other way. Potencies beside an inconclusive call are fits to weak or partial responses and may not hold up.
# Assay: Primary qHTS for delayed death inhibitors of the malarial parasite plastid, 48 hour incubation
# Conditions: P. falciparum luciferase growth in erythrocytes; series mostly up to 28.7 µM
# In short: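 Read-out is firefly luciferase luminescence from an integrated reporter in P. falciparum, so falling signal marks reduced parasite growth. Infected erythrocytes were at 2% hematocrit and 0.1% parasitemia (final) in Albumax-supplemented RPMI 1640.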
# Potency is read from the fitted curve at half-maximal effect; tags tell the direction and shape of the fitted curve.
row,Structure (SMILES),Potency
1,COc1ccc(/C=C(/NC(=O)c2ccccc2)c2nc3ccccc3[nH]2)cc1OC,"inconclusive: 0.0828 µM [inhibitor, partial curve, poor fit]"
2,Cc1ccccc1C(=O)Nc1cccc(-c2ccc(N3CCOCC3)nn2)c1,inactive
3,Cc1ccc2nc3c(cc2c1)c(NC(=O)C1CCCO1)nn3CC(C)C (centres undefined),"inconclusive: 18.5 µM [inhibitor, single point]"
4,O=c1oc2c(O)cccc2cc1-c1nc2ccccc2[nH]1,inactive
5,Cc1ccc(C(O)c2nc3ccccc3n2C)cc1 (centres undefined),inactive
6,CCC1(CC)NC(=O)N(CC(=O)Nc2ccc(S(=O)(=O)N3CCOCC3)cc2)C1=O,inactive
7,CC(C)n1cnc2c(N(C)c3ccccc3)nc(N(CCN(C)C)Cc3ccccc3)nc21,active: 4.65 µM
8,COc1ccc(NS(=O)(=O)c2cccc(-c3nnc4n3CCCCC4)c2)cc1,"inconclusive: 3.7 µM [inhibitor, partial curve, poor fit]"
9,CSc1sc(-c2n[nH]c(=S)n2C)c2c1C=CCC2,"inconclusive: 2.94 µM [inhibitor, full curve]"
10,OCCNCC(O)CN1c2ccccc2Sc2ccccc21 (centres undefined),"inconclusive: 7.38 µM [inhibitor, partial curve, poor fit]"
11,Cc1ccnc(NC2(C(F)(F)F)N=C(c3ccccc3)NC2=O)c1 (centres undefined),inactive
12,O=C(NC12CC3CC(CC(C3)C1)C2)c1cccnc1Cl,inactive
13,O=C(CSc1nc(-c2ccccc2)cs1)NCCN1C(=O)CSC1=O,inactive
14,N#Cc1c(N2CCCC(O)C2)nc(N)c2c(N)nc3c(c12)CC(=O)N3C12CC3CC(CC(C3)C1)C2 (centres undefined),"inconclusive: 0.828 µM [inhibitor, full curve, poor fit]"
15,CCOC(=O)C1=C(C)NC(C)=C(C(=O)OCC)C1C(=O)OCC(=O)N1CCCCC1CC (centres undefined),"inconclusive: 13.1 µM [inhibitor, single point]"
16,COc1ccc(Cn2c(=N)c(C(=O)NCC3CCCO3)cc3c(=O)n4ccccc4nc32)cc1 (centres undefined),"inconclusive: 18.5 µM [inhibitor, single point]"
17,CCN1CCCc2cc(CN(CCN3CCOCC3)C(=S)Nc3cccc(C)c3)ccc21,"inconclusive: 18.5 µM [inhibitor, single point]"
18,O=c1cc(CN2CCN(c3cccc(C(F)(F)F)c3)CC2)nc2sccn12,inactive
19,CN(C)/C=C1\SC(=S)N(c2ccc(F)cc2)C1=O,"inconclusive: 18.5 µM [inhibitor, single point]"
20,CC1CN(C(=O)CCC(=O)N2CCN(c3ccccn3)CC2)c2ccccc2O1 (centres undefined),inactive
21,CCCC(CCC)C(=O)Nc1cccc(C(=O)O)c1,inactive
22,COc1ccc(-n2c(O)c(/C=N/n3cnnc3)c3ccccc3c2=O)cc1,inactive
23,C#CCOc1ccc(/C=C2/C(=O)ON=C2C)cc1Br,inactive

row,Structure (SMILES),Potency
1,O=C(CSc1ccccc1)Nc1ccc(NC(=O)c2ccco2)cc1,"inconclusive: 8.28 µM [inhibitor, partial curve, poor fit]"
2,CC1CCC(NC(=O)CCCCn2c(=O)[nH]c3ccsc3c2=O)CC1 (centres undefined),"inconclusive: 2.94 µM [inhibitor, partial curve, poor fit]"
3,Cn1c(SCc2ccc(C(=O)Nc3nccs3)cc2)nnc1-c1ccccc1,active: 2.33 µM
4,c1ccc(-c2ncc(-c3ccn[nH]3)s2)cc1,inactive
5,O=C(C1=C[C@H](c2ccc(C(F)(F)F)cc2)C[C@H](OCCCCO)O1)N1CCN(Cc2ccccc2)CC1,"inconclusive: 3.29 µM [inhibitor, single point]"
6,CCNC(=O)C/C(C)=N/NC(=O)C12CC3CC(CC(C3)C1)C2,"inconclusive: 1.47 µM [inhibitor, partial curve, poor fit]"
7,Cc1csc(NC(=O)c2c(-c3c(Cl)cccc3Cl)noc2C)n1,"inconclusive: 11.7 µM [inhibitor, single point]"
8,O=C1c2ccccc2-c2nc3ccccc3nc21,"inconclusive: 5.22 µM [inhibitor, single point]"
9,O=C(COC(=O)Cc1c[nH]c2ccccc12)NCCc1ccccc1,"inconclusive: 10.4 µM [inhibitor, partial curve, poor fit]"
10,COc1ccccc1-c1nn(Cc2ccccc2)cc1C(=O)NCC(c1ccco1)N1CCCC1 (centres undefined),"inconclusive: 18.5 µM [inhibitor, single point]"
11,CC(C)(C)C(=O)N1CCn2c1nc1ccccc12,inactive
12,COC(=O)c1ccc(CN2CCc3ccc(NC(=O)c4ccncc4)cc3C2)cc1,"inconclusive: 16.5 µM [inhibitor, partial curve, poor fit]"
13,CC(C)(CNC(=O)CCC1CCCC1)CNC(=O)CCC1CCCC1,"inconclusive: 11.7 µM [inhibitor, partial curve, poor fit]"
14,CC1=NN(C(=O)CSCc2ccccc2)C(O)(c2ccccc2)C1 (centres undefined),"inconclusive: 1.31 µM [inhibitor, single point]"
15,COc1ccc(Nc2oc(-c3cccs3)nc2C#N)cc1,inactive
16,CC(OC(=O)c1ccccc1C(=O)N(C)C1CCCCC1)C(=O)NC1(C#N)CCCCC1 (centres undefined),"inconclusive: 11.7 µM [inhibitor, single point]"
17,COc1ccc(C(=O)CSc2nc3ccccc3n2CC(=O)c2ccccc2)cc1,"inconclusive: 4.15 µM [inhibitor, single point]"
18,N#C/C(=C\c1c(N2CCCCCC2)nc2ccccn2c1=O)C(=O)NCc1ccco1,"inconclusive: 11.7 µM [inhibitor, single point]"
19,CC(=O)c1ccc(N2CCN(C(=O)c3ccc(-c4ccccc4)cc3)CC2)cc1,inactive
20,O=C(Cn1cncc1-c1ccc([N+](=O)[O-])cc1)Nc1ccccc1F,inactive
21,c1ccc(-n2cc(CN3CCCC(CN4CCCC4)C3)c(-c3ccc4c(c3)OCO4)n2)cc1 (centres undefined),"inconclusive: 18.5 µM [inhibitor, single point]"
22,O=c1[nH]c2ccccc2n1C1CCN(CCCC(c2ccc(F)cc2)c2ccc(F)cc2)CC1,"inconclusive: 19 µM [inhibitor, single point] and inconclusive: 1.85 µM [inhibitor, full curve]"
23,Cc1ccc(-n2c(SCC(=O)N3CCCc4ccccc43)nnc2-c2cccnc2)c(C)c1,"inconclusive: 20.8 µM [inhibitor, partial curve, poor fit]"

row,Structure (SMILES),Potency
1,Cc1cc(NC(=O)CC#N)n(-c2nc3ccccc3[nH]2)n1,"inconclusive: 1.65 µM [inhibitor, full curve]"
2,CN(C)S(=O)(=O)c1ccc(C(=O)OCc2nnc(-c3ccccc3)o2)cc1,inactive
3,C=CCN1C(=NC(=O)CC)SC2CS(=O)(=O)CC21 (centres undefined),inactive
4,O=c1nc(N2CCOCC2)ccn1-c1nc(-c2ccccc2)sc1-c1ccccc1,"inconclusive: 18.5 µM [inhibitor, single point]"
5,O=C(c1ccc(Br)cc1)N(Cc1nc2ccccc2c(=O)[nH]1)C1CCCC1,"inconclusive: 10.4 µM [inhibitor, single point]"
6,CC(C)(C)NC(=O)C(c1cccs1)N(Cc1cccs1)C(=O)c1ccc(CN2CCOCC2)o1 (centres undefined),inactive
7,Cn1c(CNC(=O)CNC(=O)Cc2ccc(F)cc2)cc(=O)n(C)c1=O,inactive
8,O=C(CCSCCc1ccccn1)Nc1ccccn1,"inconclusive: 4.15 µM [inhibitor, single point]"
9,CC(=O)N1CCc2cc(S(=O)(=O)NCCC(=O)NC3CCCCCC3)ccc21,inactive
10,COC(=O)c1c(NC(=O)Cc2cccs2)sc(C(=O)N2CCCCC2)c1C,"inconclusive: 7.38 µM [inhibitor, partial curve, poor fit]"
11,Cc1c(C(=O)NCc2ccccc2)oc2ccc(S(=O)(=O)N3CCC4(CC3)OCCO4)cc12,"inconclusive: 2.94 µM [inhibitor, full curve]"
12,COc1ccc(C2NC(=O)NC(C)=C2C(=O)OC2CCCC(C)C2)cc1 (centres undefined),inactive
13,COc1ccc(C)cc1S(=O)(=O)N(CC(=O)Nc1cccc([N+](=O)[O-])c1)c1cc(C)cc(C)c1,"inconclusive: 1.65 µM [inhibitor, full curve]"
14,CCCCCCc1cc2cc(C(=O)NCc3ccccc3)c(=N)oc2cc1O,"inconclusive: 1.85 µM [inhibitor, partial curve, poor fit]"
15,O=C(NCCN1CCN(Cc2ccccc2)CC1)c1cc2c(=O)[nH]c3ccccc3c2s1,active: 10.4 µM
16,CCC1=Nc2cc(C(=O)N3CCC4(CC3)OCCO4)ccc2Sc2ccccc21,"inconclusive: 9.28 µM [inhibitor, partial curve, poor fit]"
17,COc1cccc2cc(C(=O)OCc3ccccc3)c(=O)oc12,inactive
18,COc1ccc(-c2nn(-c3ccccc3)cc2CNC(=O)c2cccc([N+](=O)[O-])c2)cc1,"inconclusive: 10.4 µM [inhibitor, single point]"
19,C/C(CC(=O)Nc1ccc(Cl)cc1Cl)=N\NC(N)=S,"inconclusive: 8.28 µM [inhibitor, partial curve, poor fit]"
20,COc1ccc([N+](=O)[O-])cc1C1NN=C(c2ccccc2O)S1 (centres undefined),"inconclusive: 2.62 µM [inhibitor, full curve, poor fit]"
21,CCCn1c(SCc2nc3ccccc3s2)n[nH]c1=O,inactive
22,O=C(c1cccnc1)N(c1cc2sc(=O)oc2c2ccccc12)S(=O)(=O)c1ccccc1,"inconclusive: 11.7 µM [inhibitor, partial curve]"
23,CCCCN(C(=O)Cn1ncc(Cl)c(Cl)c1=O)c1c(N)n(CC(C)C)c(=O)[nH]c1=O,inactive
